# Data published in PubChem BioAssay AID588855 (National Center for Advancing Translational Sciences (NCATS), 2011).
# “And” between values parts separate entries of the source, which are not always exact repeats. Equal values may be shown once. Among all 410,000 compounds or so, about 5,000 (1.2%) were called active. Inconclusive means that the source gave no clear call. Such entries were picked first, then a sample of the others. Calls come from the whole dose curve; as a rule, active = well fitted inhibition curve with a large enough effect; inconclusive = small, poorly fitted or top-dose-only effect; inactive = no such curve, though single readings can be large or run the other way. A potency beside an inconclusive call is a rough fit, not a confirmed value.
# Experiment: qHTS for Inhibitors of TGF-b; note: nearly all actives have a fitted effect of over 65% in size
# Conditions: HepG2 CAGA-GFP TGF-b/SMAD3 reporter, GFP fluorescence, 18 h, TGF-beta stimulated, 500 pg/mL final; series mostly up to 46.1 µM; activity, negative = inhibition: at the top concentration
# Procedure, shortened: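 Smad-responsive CAGA-GFP expression was quantified in HEPG2 cells exposed to compounds and 500 pg/mL final TGF-beta for 18 h at 37 degrees C; unstimulated wells defined full inhibition.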
# % is set by controls: 0 for no effect and ±100 for the full control effect; potency is the fitted concentration of half-maximal effect; tags give direction and shape of the fitted curve.
SMILES,"activity, negative = inhibition",Potency
O=C(CN1CCN(C(=O)c2ccc(OCc3cn4ccccc4n3)cc2)CC1)Nc1cccc(F)c1,inactive: -11.1%,–
CC(C)n1c(O)c(N=NC(=O)Cn2ccc(C(F)(F)F)n2)c2ccccc21,–,"inconclusive: 17.8 µM [inhibitor, single point]"
COc1ccc(NC(=O)CCn2c(-c3ccc(F)cc3)cc(C(C)=O)c2C)c(OC)c1,–,"inconclusive: 20 µM [inhibitor, partial curve, poor fit]"
CCOC(=O)C1CCN(Cc2ccc(OC)cc2OC)CC1,–,"inconclusive: 3.16 µM [inhibitor, partial curve]"
Brc1ccc2c(c1)-c1ccccc1C1=NCCN12,–,active: 15.8 µM
O=C(NCCS(=O)(=O)N1CCN(c2ccccc2F)CC1)C1CC(=O)N(c2ccccc2)C1 (stereo not drawn),–,inactive
COc1ccc(-n2c(N)c(C(=O)NCc3ccco3)c3nc4ccccc4nc32)cc1,–,"inconclusive: 1.12 µM [inhibitor, full curve]"
COc1ccc(-c2cccc(-c3nc4ccc(Cl)cn4c3NC3CCCCC3)c2)cc1,inactive: 17%,–
CN(C)S(=O)(=O)c1ccc(NC(=O)COc2ncnc3c2cnn3-c2ccccc2)cc1,–,"inconclusive: 22.4 µM [inhibitor, single point]"
Cc1ccc(-n2nnnc2SCC(=O)NNC(=O)c2ccco2)cc1C,–,"inconclusive: 11.2 µM [inhibitor, single point]"
N#C/C(=C\c1c(Cl)cccc1Cl)c1nc2ccccc2o1,inactive: -5.92%,–
O=C(Cc1cccc(NC(=O)C2CCCN(C(=O)CCc3ccccc3)C2)c1)Nc1ccc(C(=O)N2CCCCC2)cc1 (stereo not drawn),–,"inconclusive: 14.1 µM [inhibitor, single point]"
COC(=O)c1c(NC(NC(=O)C(C)(C)C)C(Cl)(Cl)Cl)sc2c1CCC2 (stereo not drawn),–,active: 12.6 µM
Cc1ccccc1-n1c(SCc2ccccn2)nc2n[nH]c(C)c2c1=N,–,"inconclusive: 35.5 µM [inhibitor, single point]"
COCCN(Cc1cc2cc(C)cc(C)c2nc1Cl)C(=O)Nc1ccccc1,–,"inconclusive: 35.5 µM [inhibitor, single point]"
CC1(C)Cc2c(ccc3ccccc23)/C(=C/C#N)N1,–,"inconclusive: 15.8 µM [inhibitor, single point]"
COc1ccc(-c2cc(C)no2)cc1S(=O)(=O)NC1CCC(C)CC1 (stereo not drawn),–,"inconclusive: 35.5 µM [inhibitor, single point]"
COc1ccc(N2CCN(C(=O)C(C)n3c(=O)cc(C(F)(F)F)c4c(C)nn(C)c43)CC2)cc1 (stereo not drawn),inactive: 0.373%,–
COc1ccc(/C=C2\SC(=S)N(CC(=O)OCC(=O)Nc3cc(Cl)cc(Cl)c3)C2=O)cc1,–,"inconclusive: 35.5 µM [inhibitor, single point]"
COc1cc(NC(=O)C2Cc3ccccc3CN2S(C)(=O)=O)cc(OC)c1 (stereo not drawn),–,active: 11.2 µM
O=C(Cc1cccs1)Nc1ccc(Cl)cc1,inactive: 0.506%,–
O=C(CN1C(=O)c2ccccc2S1(=O)=O)Nc1ncc([N+](=O)[O-])s1,–,"inconclusive: 35.5 µM [inhibitor, single point]"
COCCNC(=S)Nc1ccccn1,inactive: -4.41%,–

SMILES,"activity, negative = inhibition",Potency
COc1ccc(C2CC(c3ccc4ccccc4c3)=NN2C(=O)CSc2ncccn2)cc1 (stereo not drawn),–,"inconclusive: 35.5 µM [inhibitor, single point]"
CC1CCCCN1C(=O)CSc1nnc(-c2ccc(Cl)s2)o1 (stereo not drawn),inactive: 3.5%,–
COc1ccccc1CNS(=O)(=O)c1ccc2c(c1)CC(C)N2C(=O)C1CCC1 (stereo not drawn),–,active: 14.1 µM
Cn1cccc1/C=N\NC(=O)c1cncc(Br)c1,inactive: 6.68%,–
Cc1ccccc1-c1nnc(SCC(=O)NC2CCCCC2)o1,–,"inconclusive: 0.562 µM [inhibitor, full curve, poor fit]"
CCN(C[C@H]1N[C@@](CC)(C(=O)OC)[C@H]2C(=O)N(Cc3ccccc3)C(=O)[C@@H]12)C(=O)c1ccc(F)cc1,inactive: -23.3%,–
O=C(CC1SC(N2CCCCC2)=NC1=O)Nc1cccc(C(=O)NCc2ccccc2)c1 (stereo not drawn),–,"inconclusive: 22.4 µM [inhibitor, single point]"
Cc1nc(NC(=O)c2ccccc2O)sc1C,inactive: 20.9%,–
CCOc1ccc(S(=O)(=O)N2CCC(C(=O)N3CCCCCC3)CC2)cc1Cl,–,"inconclusive: 15.8 µM [inhibitor, single point]"
CCCCn1c(SCc2nc3ccccc3s2)nc2cc(S(N)(=O)=O)ccc21,–,"inconclusive: 12.6 µM [inhibitor, partial curve, poor fit]"
COc1ccc(C2c3c(ncn(CCCO)c3=N)Oc3ccc4ccccc4c32)cc1 (stereo not drawn),–,"inconclusive: 22.4 µM [inhibitor, single point]"
OC(CNCCc1ccccc1)COc1ccc(OCC(O)CNCCc2ccccc2)cc1 (stereo not drawn),–,"inconclusive: 35.5 µM [inhibitor, single point]"
O=C(Nc1ccc(N2CCOCC2)c(F)c1)c1cccs1,inactive: 4.9%,–
CC(C)(C)OC(=O)NCc1ccc(CNC(=O)c2[nH]cnc2C(=O)NCC(=O)OCc2ccccc2)cc1,inactive: -2.11%,–
Cc1cc(NC(=O)CSCCO)no1,–,"inconclusive: 17.8 µM [inhibitor, partial curve, poor fit]"
O=C(Nc1ccccc1F)C1CCN(S(=O)(=O)c2ccc3c(c2)CCCN3C(=O)C2CCC2)CC1,–,"inconclusive: 35.5 µM [inhibitor, single point]"
Oc1ccc(Cc2ncc(C(F)(F)F)cc2Cl)cc1,–,"inconclusive: 35.5 µM [inhibitor, single point]"
Cc1ccc(-c2nc(CS(=O)CC(=O)N3CCN(c4ccc(F)cc4)CC3)c(C)o2)cc1 (stereo not drawn),–,"inconclusive: 10 µM [inhibitor, partial curve, poor fit] and inconclusive: 3.55 µM [inhibitor, partial curve, poor fit]"
CCOC(=O)N1CCC(N(CCN(C)C)C(=S)Nc2ccc(F)c(Cl)c2)CC1,–,"inconclusive: 12.6 µM [inhibitor, single point]"
CC(C)C(=O)NC(c1cccc([N+](=O)[O-])c1)c1ccc2cccnc2c1O (stereo not drawn),–,active: 3.55 µM
COc1ccc(N=c2cc(-c3ccc(OC)cc3)oc3ccccc23)cc1,–,"inconclusive: 28.2 µM [inhibitor, single point]"
COc1cccc(Nc2c([N+](=O)[O-])cncc2[N+](=O)[O-])c1,–,"inconclusive: 20 µM [inhibitor, single point]"
Cc1ccc(-n2c(=O)c3oc4ccccc4c3n(CC(=O)Nc3ccc(F)c(Cl)c3)c2=O)cc1C,–,"inconclusive: 6.31 µM [inhibitor, partial curve]"

SMILES,"activity, negative = inhibition",Potency
COc1ccc(CN(C(=O)CN2C(=O)COc3ccccc32)C2CCCC2)c(OC)c1,–,"inconclusive: 35.5 µM [inhibitor, single point]"
CN1CCN(c2ccccc2NC(=O)c2sc3ccccc3c2Cl)CC1,inactive: 0%,–
CC(=O)c1ccc(Nc2nc(C(N)C(C)C)cs2)cc1 (stereo not drawn),inactive: -6.75%,–
S=C(Nc1cccc(Br)c1)c1ccccc1,–,"inconclusive: 17.8 µM [inhibitor, single point]"
CC(C)Oc1ccc(CNC(=O)C2CCCCN2S(=O)(=O)c2ccc(F)cc2)cc1 (stereo not drawn),–,"inconclusive: 17.8 µM [inhibitor, single point]"
CCc1ccc(C(=O)Nc2ccc(C)c(NS(C)(=O)=O)c2)cc1,–,"inconclusive: 14.1 µM [inhibitor, single point]"
O=C(NC(c1ccc(F)cc1)c1cnccn1)C1CCN(CCOc2ccc(Cl)cc2Cl)CC1 (stereo not drawn),–,"inconclusive: 35.5 µM [inhibitor, single point]"
CCc1ccc(C2CC(c3ccccc3)Nc3nc(N)nn32)cc1 (stereo not drawn),inactive: -0.868%,–
CCCCCn1c(=O)[nH]c2cc(C(=O)N3CCN(c4cccc(OC)c4)CC3)ccc2c1=O,–,"inconclusive: 35.5 µM [inhibitor, partial curve, poor fit]"
COCCCN=C1NN=C(c2cc(C)n(-c3ccccc3)c2C)CS1,inactive: -1.4%,–
O=C(C[n+]1ccccc1)Nc1nc2ccccc2s1,–,"inconclusive: 35.5 µM [inhibitor, single point]"
O=c1c2c3c(sc2nc2n1CCCC2)CCCC3,–,"inconclusive: 35.5 µM [inhibitor, single point]"
CCCCC(=O)Nc1c(C(=O)N2CCN(c3ccccc3)CC2)oc2ccccc12,–,"inconclusive: 17.8 µM [inhibitor, single point]"
C=C(Br)COC(c1ccco1)[C@H](Cc1ccccc1)NC(=O)OC(C)(C)C (stereo partly drawn),–,"inconclusive: 35.5 µM [inhibitor, single point]"
CCOc1ccc(OCC(=O)Nc2c3c(nn2C(C)(C)C)CS(=O)(=O)C3)cc1,–,"inconclusive: 20 µM [inhibitor, single point]"
O=C1ON=C(c2ccccc2)/C1=C\c1ccco1,–,"inconclusive: 5.62 µM [inhibitor, single point]"
COc1cccc(C#CC2=CC(=O)C[C@H](c3ccc(F)cc3)C2)c1,–,"inconclusive: 17.8 µM [inhibitor, single point]"
N#Cc1nc(-c2ccc(OCc3ccccc3)cc2)oc1N1CCOCC1,inactive: 0.332%,–
COC(=O)C(Cc1ccccc1)NC(=O)c1cc(S(=O)(=O)N(C)C)ccc1Cl (stereo not drawn),–,"inconclusive: 11.2 µM [inhibitor, partial curve, poor fit]"
CC(C)(C)c1cc(NCc2ccccn2)n2ncc(-c3ccc(Cl)cc3)c2n1,inactive: -12.6%,–
O=C(COC(=O)c1ccc2ncsc2c1)Nc1cc([N+](=O)[O-])ccc1Cl,–,"inconclusive: 25.1 µM [inhibitor, single point]"
O=C(OCC(=O)N1CCN(c2ccccc2)CC1)c1ccc[n+]([O-])c1,–,"inconclusive: 22.4 µM [inhibitor, single point]"
